# Measured values published in PMC12136788.
# The list shows a part of the results.
# B1: chr1:155263244:155263345:-|CDS|ENSG00000176444|unk|FALSE|unique (ssRNA)
# RNA: GGGAGUUCUACAGUCCGACGAUCGUAUCUGACCUCAGAGGCAGAGGAACACCACCAGCUCUUCGAUCUGAUUGAAAGCAUGCUAGAGUAUGAACCAGCUAAGCGGCUGACCUUGGGUGAAGCCCUUCAGCAUCCUUUCUUCGCCAACAGAGGAUUGAGCAUCA
# B2: chr20:4701031:4701132:+|3pUTR|ENSG00000171867|msi1|FALSE|unique (ssRNA)
# RNA: GGGAGUUCUACAGUCCGACGAUCCAUAGUUUCUGUAAUUGGCUUUUGAAUCAAAGAAUAGGGAGACAAUCUAAAAAAUAUCUUAGGUUGGAGAUGACAGAAAUAUGAUUGAUUUGAAGUGGAAAAAGAAAUUCUGUUAAUGUUCAACAGAGGAUUGAGCAUCA
# B3: chr11:35810521:35810622:+|3pUTR|ENSG00000166326|unk|total|mutant (ssRNA)
# RNA: GGGAGUUCUACAGUCCGACGAUCCCAGAAACCAUAAGACUCAGGCAGUUCUUGAUUCUGGAGGCCUGCCUGGUAAGAUAAGACCGUAUAAUUUGGAACUGAGAACAUACCAGAAACAGCAGAACGAGGGCCAGAGCAGAAAAACAACAGAGGAUUGAGCAUCA
# B4: chr1:16124655:16124788:-|3pUTR|ENSG00000142627|msi1|FALSE|unique (ssRNA)
# RNA: GGGAGUUCUACAGUCCGACGAUCAGACUGUGAACUUGACUGGGUGAGACCCAAAGCGGUCCCUGUCCCUCUAGUGCCUUCUUUAGACCCUCGGGCCCCAUCCUCAUCCCUGACUGGCCAAACCCUUGCUUUCCUGGGCCUUUGCAACAGAGGAUUGAGCAUCA
# B5: ENSG00000147394:stop:overlap|stop_codon|ENSG00000147394|stop_codon|NA|stop_codon (ssRNA)
# RNA: GGGAGUUCUACAGUCCGACGAUCAUCAGAUCUUCAUUCACCGUGACACCAUUCACUGUGGGAAAUGCUAUGAGAAGCUCUUCUAGCGACCCCCCACCGCCAGGCUGAUCAGAAGCUGAUGACUCGUGGACAAAUUUGGCUGUCCAACAGAGGAUUGAGCAUCA
# B6: ENSG00000006125:stop:overlap|stop_codon|ENSG00000006125|stop_codon|NA|stop_codon (ssRNA)
# RNA: GGGAGUUCUACAGUCCGACGAUCCAUCAGAAACACAGGAGCUAGUCCAGCAGGUCUUGAGUUUGGCAACACAGCUAAAGAAGUAGUCUUGUCUGAGAAGCCACUGAUCUCUGAGGAGACGGACCUUAUUGAGCCAACUCUGCUCAACAGAGGAUUGAGCAUCA
# B7: chr5:1253166:1253831:-|three_prime_utr|ENSG00000164362|control|control|control (ssRNA)
# RNA: GGGAGUUCUACAGUCCGACGAUCCUCGGCUCCACCCCAGGGCCAGCUUUUCCUCACCAGGAGCCCGGCUUCCACUCCCCACAUAGGAAUAGUCCAUCCCCAGAUUCGCCAUUGUUCACCCCUCGCCCUGCCCUCCUUUGCCUUCAACAGAGGAUUGAGCAUCA
# B8: chr1:220062840:220062943:-|CDS|ENSG00000162813|unk|total|mutant (ssRNA)
# RNA: GGGAGUUCUACAGUCCGACGAUCGUUUACACAGGCAGGACCAGAUGCUGUGUUGGGGAGGACAAUCUGGGGAGUUUCCGGUUCCGGCGCCUUUGGGUUUCAGCUGAAAGAAGUCCCUGCUGGGAAACACAUUAUCACAACUACCAACAGAGGAUUGAGCAUCA
# B9: chr11:123627604:123627705:+|3pUTR|ENSG00000023171|unk|total|mutant (ssRNA)
# RNA: GGGAGUUCUACAGUCCGACGAUCAUUUGGAUCUAUAACUGUACUUUGCCUGGCGCUGUGCGCAAGGUCAGAAAACUUACUGCCCGUACCCCGAAACACACAAGGCUGCCCAGCCAAAUCUUAAUGUAAAGCCGCCCGAGCCAUCAACAGAGGAUUGAGCAUCA
# B10: chr5:172042892:172042993:-|3pUTR|ENSG00000072786|msi1|total|mutant (ssRNA)
# RNA: GGGAGUUCUACAGUCCGACGAUCGAUUCUCCCGCUUCAACCUUGAGCCGCUGGGACGACAGAUACAUGCUACUGCACCCAGCCCGGUUAAGGUUCUGUAUACUCUGUCUUUCUAAAGCAAUUCCCUGGAAAUUUUCUCAACAUCAACAGAGGAUUGAGCAUCA
# B11: chr7:152122106:152122213:+|3pUTR|ENSG00000178234|unk|total|mutant (ssRNA)
# RNA: GGGAGUUCUACAGUCCGACGAUCAGUGGUUUUUAUCUGAUCAGGAACUUGUCAUGAUUUCCUUUCUCCGACUUCACCGGAGACCGUGCUUUAAAAAAAAAAAAAACUUCUAUUAUUUGUUCCGUAUGUUGUAAGCCGAUCAUUCAACAGAGGAUUGAGCAUCA
# B12: chr1:13148904:13149928:-|three_prime_utr|ENSG00000280267|control|control|control (ssRNA)
# RNA: GGGAGUUCUACAGUCCGACGAUCCCUGGACCUGAGUGGCAUCAGACUGACCAAUUACAGUCUUGUGCCUCUCCAAAUUCUCCUAGAAAAAGUUGCAGCCACCCUUGAGUACCUGGAUUUAGAUGACUGUGGCAUCAUAGACUCCAACAGAGGAUUGAGCAUCA
# B13: chr1:186359875:186359976:-|CDS|ENSG00000047410|msi1_unk|total|mutant (ssRNA)
# RNA: GGGAGUUCUACAGUCCGACGAUCGGAAACUCAGGAUCAGUUGCUUUUGGAGAAACCCGAGAACAAAAGAAUUAAUAAGUACCCCGAUGAAACCGUGAAAGAAGUGGAAGCCAAAGCACCAAUUUUGAAACGCCAGCGUGAGGACAACAGAGGAUUGAGCAUCA
# B14: chr5:147393259:147393361:-|3pUTR|ENSG00000113657|msi1_unk|FALSE|overlapping (ssRNA)
# RNA: GGGAGUUCUACAGUCCGACGAUCAGACCCAACCAUUUCUUCCACCUGCUUGAUUGUGCCAGUGUUUGCUCAGGCCUCUUUCUUAGUGUUGCUUUCAAAUCCUUCUCUUUCCUGGGUUGGGAAGGCCAGGCAGGGACAGAGCAACAACAGAGGAUUGAGCAUCA
# B15: ENSG00000124422:stop:overlap|stop_codon|ENSG00000124422|stop_codon|NA|stop_codon (ssRNA)
# RNA: GGGAGUUCUACAGUCCGACGAUCACGUCCUGGACAGCGAAGGGUACUUGCUGUUCUAUCACAAACAGUUCCUGGAAUACGAGUAGCCUUAUCUGCAGCUGGUCAGAAAAACAAAGGCAAUGCAUUGGCAAGCCUCACAAAGUGCAACAGAGGAUUGAGCAUCA
# B16: ENSG00000197122:stop:overlap|stop_codon|ENSG00000197122|stop_codon|NA|stop_codon (ssRNA)
# RNA: GGGAGUUCUACAGUCCGACGAUCCCUUCCUGGAGGACUACUUCACGUCCACCGAGCCCCAGUACCAGCCCGGGGAGAACCUCUAGGCACAGGCGGGCCCAGACCGGCUUCUCGGCUUGGAUCCUGGGCUGGGUGGCCCCUGUCCAACAGAGGAUUGAGCAUCA
# B17: chr1:43623430:43623515:+|3pUTR|ENSG00000142949|msi1_unk|total|mutant (ssRNA)
# RNA: GGGAGUUCUACAGUCCGACGAUCGGCGGGGAAGGGUGCACCGCUGUUUCCGCUGAGGGACGUGGUGCCGACGUCCCCAAACCCCGCCCGGCUAAGUCAAGAUCAACAUUCCAGGGUUGGUAAUGUUGGAUGAUGAAACAUUCACAACAGAGGAUUGAGCAUCA
# B18: chr12:104760787:104760888:+|3pUTR|ENSG00000171310|unk|FALSE|unique (ssRNA)
# RNA: GGGAGUUCUACAGUCCGACGAUCUUCUUUUCUAAUGGCAUUGAAACUUUAAAAAAAAUGGAUUCAACUGUUUUUGCAGAAUGUAGAAAGUAUUCUGUGUCCUUGGUUAAAGAAAUCCACUUGUGAAGUGUGCCUGGAAAAUGACAACAGAGGAUUGAGCAUCA
# B19: chr7:66152395:66152486:+|3pUTR|ENSG00000241258|msi1_unk|total|mutant (ssRNA)
# RNA: GGGAGUUCUACAGUCCGACGAUCCGUUGAGAGGAUUGUUUAUUUGAUUUUUAUCCUCAUCCCAGCAGGCCUGGCUUUGUGGUCCGUUGGGUACAUCACAAAAAUAAGUUAAAAAGAAAUAUUUGUGCCUUGGGGAGAAGAAACCAACAGAGGAUUGAGCAUCA
# B20: chr10:24620413:24620514:-|CDS|ENSG00000107863|msi1|FALSE|bound_elsewhere (ssRNA)
# RNA: GGGAGUUCUACAGUCCGACGAUCGUGCUAAUGAAGUAUUGUCCAAGAAGUGCAUCUCAAGGAGCACUGACGUCUCCAUCUGUUAGUUUUAGUAAUCAUAGAACUCGUUCAUGGGAUUAUAUUGAGGGACAGGAUGAAACCUUACAACAGAGGAUUGAGCAUCA
# B21: chr10:126014591:126014692:-|3pUTR|ENSG00000148848|msi1|FALSE|unique (ssRNA)
# RNA: GGGAGUUCUACAGUCCGACGAUCAAAGGUUUGUCUCCUGAAAUUUUUUAAGUUUGUUUUCCUGACACAUGUAAUCAGAUGUGUAGCAACCGAGGGAAACGAAGCCUAACAUUCUCCAUUGUGGAAAUACACACAGGAGGUUACCAACAGAGGAUUGAGCAUCA
# B22: ENSG00000112936:stop:overlap|stop_codon|ENSG00000112936|stop_codon|NA|stop_codon (ssRNA)
# RNA: GGGAGUUCUACAGUCCGACGAUCGAUGCAGAGGGCAGAGCAUCUCUGUCACCAGCAUAAGGCCUUGUGCUGCGGAAACCCAGUAGGCUCCUGGAGGCCCUGGUCAGCUUGCUUGGAAUCCAGCAGGCAGCUGGGGCUGAGUGACAACAGAGGAUUGAGCAUCA
# Molecular target: MSI1 full-length (mouse, UniProt Q61474 1-362)
# UniProt Q61474, sequence (Q61474 whole entry): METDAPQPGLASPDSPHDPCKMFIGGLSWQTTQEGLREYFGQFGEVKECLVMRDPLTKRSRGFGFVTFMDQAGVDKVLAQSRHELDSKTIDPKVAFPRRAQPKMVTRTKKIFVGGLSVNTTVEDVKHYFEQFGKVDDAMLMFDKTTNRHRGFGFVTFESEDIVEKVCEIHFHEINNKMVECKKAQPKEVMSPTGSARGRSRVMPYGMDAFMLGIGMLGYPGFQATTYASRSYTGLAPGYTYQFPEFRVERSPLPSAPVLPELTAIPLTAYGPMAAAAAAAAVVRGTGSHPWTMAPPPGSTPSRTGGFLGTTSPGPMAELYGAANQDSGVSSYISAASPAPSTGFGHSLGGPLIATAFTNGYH
# Experiment: nsRBNS (natural sequence RNA bind-n-seq); RBNS binding buffer (assumed for nsRBNS): 25 mM Tris pH 7.5, 150 mM KCl, 3 mM MgCl2, 0.01% Triton X-100, 500 ug/ml BSA, 20 U/ml SUPERase-In, 4 C; UNK is unkempt and MSI1 is Musashi-1; names of the RNAs are library labels; protein concentration not given here; high values mean tight binding
row,Binder,binding signal [enrichment R]
1,B1,0.393
2,B2,0.766
3,B3,0.612
4,B4,0.71
5,B5,0.509
6,B6,1.31
7,B7,1.37
8,B8,0.433
9,B9,0.355
10,B10,0.391
11,B11,1.74
12,B12,0.437
13,B13,0.601
14,B14,0.5
15,B15,0.511
16,B16,0.473
17,B17,0.211
18,B18,0.433
19,B19,0.516
20,B20,4.85
21,B21,0.329
22,B22,0.257
